# PubChem BioAssay AID1508642 (National Center for Advancing Translational Sciences (NCATS), 2021)
# Hit rate of the full screen: of about 43,000 compounds, about 200 (0.47%) were called active. Inconclusive results (about 12%) are left out. The call rests on the fitted dose curve; in most records, active means well fitted cell-killing curve with a large enough effect; inconclusive means small, poorly fitted or top-dose-only effect, or effect the other way; inactive means flat fitted curve, though single readings scatter. Some of the results follow.
# Experiment: Cell viability qHTS assay in S16 Pmp22-F2sN cells; further: nearly all actives have a fitted effect of over 65% in size
# Settings: S16 Pmp22-F2sN Schwann cells (luciferase reporters placed in the Pmp22 gene) viability, CellTiter-Glo, 24 h; series mostly up to 57.5 µM; activity change, negative = cytotoxicity: at the top concentration
# Outline: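 S16 Schwann cells carrying the Pmp22-F2sN reporter, seeded in 1536-well format, were exposed to library compounds for 24 h at 37C. Viability was read as CellTiter-Glo luminescence after 15 min at room temperature.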
# On the % scale 0 is the no-effect control and ±100 the full control effect; potency means the concentration at half of the fitted maximal effect.
Structure (SMILES),"activity change, negative = cytotoxicity",Potency
CCOC(=O)N1CCC(NC(=O)c2cnn(-c3ccc(F)cc3F)c2C2CCN(C(=O)OC(C)(C)C)CC2)CC1,inactive: -7.29%,
Cc1ccccc1NC(=O)c1ccc2c(O)c(S(=O)(=O)c3ccccc3)c(=O)[nH]c2c1,inactive: 1.93%,
CNc1ccc(-c2nc(-c3ccco3)no2)cc1[N+](=O)[O-],inactive: -0.27%,
O=C(C1CCCN(S(=O)(=O)c2ccc(Br)s2)C1)N1CCN(c2cccc(Cl)c2)CC1 (centres undefined),inactive: -0.214%,
Cc1cccc(N2CCN(S(=O)(=O)c3ccc(-c4cc(C(F)(F)F)on4)s3)CC2)c1C,inactive: 2.66%,
Cc1ccccc1OCC(=O)Nc1ccc2nc(SCC(=O)N3CCc4ccccc43)sc2c1,inactive: 21.2%,
COc1ccc2c(c1)c1c(c(=O)n(-c3ccc(C)cc3)c(=O)n1CC(=O)NCc1ccc(C)cc1)n2C,inactive: 12.2%,
COc1ccc(Cl)cc1NC(=O)c1nnn(Cc2cccc(C(F)(F)F)c2)c1N,inactive: 5.18%,
COc1ccc(OCC(=O)Nc2cc(-c3nc4ccccc4s3)ccc2C)cc1,inactive: 11.7%,
COc1cccc(C2C(C(=O)Nc3ccc(Cl)cc3)=C(C)Nc3nc4ccccc4n32)c1 (centres undefined),inactive: 10.9%,
CCC(C)Sc1oc(-c2ccco2)nc1S(=O)(=O)c1ccc(C)cc1 (centres undefined),inactive: -2.66%,
COc1cccc(CC(=O)Nc2ccc(-c3nc4ccccc4s3)cc2)c1,inactive: 33.5%,
Cc1ccc(CNc2ncnc3c2cnn3-c2ccc(Cl)cc2)cc1,inactive: 4.49%,
COc1ccccc1C1Nc2c(sc3nc(C)cc(C)c23)C(=O)N1c1ccccc1 (centres undefined),inactive: -4.59%,
CCc1ccccc1Nc1nn2c(=O)c3ccc(C(=O)NC(C)c4ccccc4)cc3nc2s1 (centres undefined),inactive: -26.1%,
COc1cc2[nH]c(=O)n(CCCC(=O)NCc3ccc(Cl)cc3)c(=O)c2cc1OC,inactive: -5.71%,
Cc1ccc(NC(=O)C(=O)NCC(c2cccnc2)N2CCN(c3ccccc3F)CC2)cc1Cl (centres undefined),inactive: -32.6%,
COc1ccccc1NC(=O)c1sc2nc(C)c(C(=O)Nc3ccc(C)cc3C)c(-c3cccs3)c2c1N,inactive: 4.72%,
CCOC(=O)c1c(C)[nH]c(CCC(=O)NCc2ccc(F)cc2)c1C,inactive: 9.53%,
CC(C)(C)C1CCc2c(sc3nc(-c4cc5cc(Br)ccc5oc4=O)[nH]c(=O)c23)C1 (centres undefined),inactive: 9.2%,

Structure (SMILES),"activity change, negative = cytotoxicity",Potency
CC(=O)Nc1ccc(NC(=O)c2cc3sccc3n2Cc2ccc(F)cc2)cc1,inactive: 13.5%,
CCOc1cc2[nH]c(=O)n(CCCCC(=O)N3CCN(c4cccc(Cl)c4)CC3)c(=O)c2cc1OCC,inactive: -19.4%,
CCc1ccc(CN2CCc3nc(Nc4ccccc4)ncc3C2)cc1,inactive: -17.2%,
COC(=O)c1ccc(NC(=O)CN2C(=O)CCc3cc(S(=O)(=O)N4CCCCC4)ccc32)cc1,inactive: 0.813%,
N#Cc1ccccc1Cn1c(=O)n(-c2cccc(C(F)(F)F)c2)c(=O)c2sccc21,inactive: 18.3%,
COc1ccc(S(=O)(=O)NCC(c2ccco2)N2CCN(c3ccccc3)CC2)cc1OC (centres undefined),inactive: 3.06%,
Cc1[nH]c(=O)[nH]c(=O)c1S(=O)(=O)N1CCN(c2ccccc2Cl)CC1,inactive: 3.85%,
O=C(O)CCn1c(=O)c2cccn2c2cccnc21,inactive: 6.67%,
O=C(NC1CCCCC1)c1ccc(CSc2nc3cccnc3n2Cc2ccc(F)cc2)cc1,inactive: -0.167%,
CCOC(=O)c1c(S(=O)(=O)N2CCCC(C(=O)Nc3cc(C)ccn3)C2)c(C)n(C)c1C (centres undefined),inactive: 5.69%,
COc1ccc(OC)c(NC(=O)C2CCN(S(=O)(=O)c3ccc4c(c3)CCCC(=O)N4)CC2)c1,inactive: 22.9%,
CCOC(=O)c1ccc(NC(=O)CCC(=O)N2Cc3ccccc3Oc3ncccc32)cc1,inactive: -4.56%,
Cc1cc(C)nc(NC(=NCCc2c[nH]c3ccc(Cl)cc23)NC(=O)c2ccccc2C)n1,inactive: 8.81%,
COC(=O)C1=C(C)NC(=O)C1(NC(=O)c1cc(OC)c(OC)c(OC)c1)C(F)(F)F (centres undefined),inactive: 12.1%,
Cc1cccc(-n2cc(-c3ccccc3)c3c(NC4CCCC4)ncnc32)c1,inactive: -7.6%,
COCCNc1ccc(-c2nc(-c3ccco3)no2)cc1[N+](=O)[O-],inactive: 16.7%,
O=C(CN1C(=O)COc2ccc(S(=O)(=O)N3CCCC3)cc21)N1CCN(c2ccc(F)cc2)CC1,inactive: -0.752%,
Cc1cccc(-n2c(Cc3ccccc3)nnc2SCc2nc(-c3cccs3)no2)c1,inactive: -22.9%,
O=C1c2[nH]nc(-c3ccccc3O)c2C(c2ccccc2F)N1Cc1cccnc1 (centres undefined),inactive: 7.99%,
COc1ccc(-c2noc(N(c3cccc(Cl)c3)c3nc(-c4ccc(OC)c(OC)c4)no3)n2)cc1OC,inactive: 0.14%,

Structure (SMILES),"activity change, negative = cytotoxicity",Potency
CCOc1cccc(C(=O)N2CCC(c3nc4ccccc4s3)CC2)c1,inactive: 10.3%,
O=C(c1ccc(Br)cc1)N1CCN(CCc2ccncc2)CC1,inactive: -14.7%,
COCCCNC(=O)c1cnc2c(-c3ccc(F)cc3)c(C)nn2c1C,inactive: -10.2%,
CCOC(=O)C1CCN(C(c2cccc(F)c2)c2c(O)cc(C)n(Cc3ccco3)c2=O)CC1 (centres undefined),inactive: 15%,
Cc1ccc(S(=O)(=O)Cc2ccc(C(=O)NCCc3ccc(Cl)cc3)o2)cc1,inactive: -8.87%,
CCOc1ccc(-c2nc(SCC(=O)c3ccccc3)n[nH]2)cc1,inactive: 0.248%,
CN(C)c1ccc(CNC(=O)c2cnc3sc(N4CCOCC4)nn3c2=O)cc1,inactive: -0.176%,
CCN(CC)CCCNC(=O)Cc1ccc(NC(=O)N2CCCCc3ccccc32)cc1,inactive: 23.5%,
O=c1oc2ccccc2cc1-c1nnc(Nc2ccc(Cl)cc2Cl)s1,inactive: 8.25%,
CCC1Oc2ccc(C)cc2N(CC(=O)NCc2ccc(OC)cc2)C1=O (centres undefined),inactive: 20.5%,
COc1cc(OC)c(NC(=O)C2CCN(C(=O)c3sc4nc[nH]c(=O)c4c3C)CC2)cc1Cl,inactive: 2.19%,
CC(C)Oc1ccc(CNC(=O)C2CCN(c3nc4ccccc4nc3C(F)(F)F)CC2)cc1,,active: 7.94 µM
Cc1ccc(-c2nc3cc(Cl)ccc3o2)cc1NC(=O)c1cc([N+](=O)[O-])ccc1N1CCOCC1,inactive: 0.322%,
CC(=O)NC1CC(=O)N(c2ccc3c(c2)OCCO3)C1 (centres undefined),inactive: -9.26%,
Cc1nc(-c2ccccc2)sc1-c1ccc(SCC(=O)Nc2cccc(C(F)(F)F)c2)nn1,inactive: -2.99%,
CCC(=O)N1CCc2cc(Br)cc(S(=O)(=O)N3CCC(C(=O)Nc4ccccc4CC)CC3)c21,inactive: 2.54%,
COc1ccc(CC(=O)NC2CC(=O)N(c3cccc(F)c3)C2)cc1OC (centres undefined),inactive: 10.4%,
CCc1nn(CCCC(=O)N2CCN(c3cc(Cl)ccc3C)CC2)c(=O)c2cc3occc3n12,inactive: -16%,
COc1ccccc1Nc1sc(C(=O)c2ccc3c(c2)OCO3)c(N)c1S(=O)(=O)c1ccccc1,inactive: 11.4%,
